# Measured values as given in PMC10726135.
# This is one part of the list. At the low end of the ranking, values are background and their order means little. Measured with an extract: partners may take part in the binding.
# Target: T1, HNF4alpha8 (COS-7 nuclear extract) (UniProt P41235-5)
# T1 sequence: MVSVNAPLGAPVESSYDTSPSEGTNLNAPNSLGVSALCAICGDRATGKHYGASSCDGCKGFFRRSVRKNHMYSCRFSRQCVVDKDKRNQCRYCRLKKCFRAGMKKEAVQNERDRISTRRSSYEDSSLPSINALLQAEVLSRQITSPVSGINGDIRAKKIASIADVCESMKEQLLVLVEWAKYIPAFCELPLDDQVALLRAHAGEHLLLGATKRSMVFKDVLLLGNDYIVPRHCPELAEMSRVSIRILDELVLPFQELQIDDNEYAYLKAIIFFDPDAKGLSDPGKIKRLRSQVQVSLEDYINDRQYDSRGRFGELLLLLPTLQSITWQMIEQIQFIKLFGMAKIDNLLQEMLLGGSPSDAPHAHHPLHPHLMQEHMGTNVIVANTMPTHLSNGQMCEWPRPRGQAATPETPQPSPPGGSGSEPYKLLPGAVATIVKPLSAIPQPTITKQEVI
# Experiment: protein-binding microarray
# Conditions: COS-7 nuclear extract on double-stranded Agilent 4x180k PBM; binding buffer, salt, pH and temperature not given; high values mean tight binding; double strand, one strand shown; sequences stand for … in …GCCTAGGGAGATTAGAGTATCGGTCGA
row,Sequence,binding signal (log2 normalized intensity)
1,TGGAGCAATTCAACAACTGTGCATTCTGAA,-0.914
2,GGAATGTGCAAACGGCCCAGGGTTAGAGGA,-1.25
3,AGGCAGCATGGAATGACTTTGGGGAAATGA,-1.47
4,GATGAAGCAATAGGAATCACACAACTTTCA,-1.38
5,GCAGAGGCCTGATGGTGAGTTCTGTCCTTT,2.44
6,CTTGGCTGTGCTGCCCTTTGCCCTTTGGGA,7.91
7,AGCTGGACTTTGAACTTCATGTGTGGTGCA,6.95
8,CCGTTAGCCAATATTTGCAAGGCTGTTGGC,-0.823
9,CTGAAGACAAAGCACAATCAAAGCAATGGC,-1.3
10,CTAGGAGAATCACTAGGACATATATGAGGA,-1.24
11,GATTGGGTCTTCTAGAAACAACACACCTTG,-1.21
12,GGGCTTGCAAAGGTCAGGTTTCAGGAATCA,2.13
13,GTCACCTACATGTGAGAGAGGCTTATGCAT,-1.38
14,TCAAGGGTGTTCCTGAGTAAATCTCACATT,0.084
15,TATCTGGTTCAAAGGTCATTTCTGCTTGCA,6.43
16,ACAAGCGTCGCTGAGTGGAGGCCCAGTAAG,-1.25
17,TGTTCTCTTTATTTATTAACTGGAGATAAC,0.939
18,GACCAGCGTGTGGCGCCATTTCAGGTCCAC,1.74
19,ACTCGGAGGACTGAGCCCGCTCCACTCCGG,-1.33
20,TTCCACAAACACAGATCAGATATGAGATTC,-1.39
21,CTTTCCTGGGCCTTAAAGCATGACAAAATA,-0.334
22,TCTGCTGGGCCTTCAGCTTGAAAACACAAC,-1.42
23,GGTGAAATAGCTGAACTATTTAAGGCCTTT,0.507
24,CCGCCCACCCTTTTTTTTCTTTCTTTTCCC,1.46
25,CACATTCCATTCTCACTGACTCACGGCAGC,-1.24

row,Sequence,binding signal (log2 normalized intensity)
1,ACTTCCAAAGCCCCTTTCCACTCTACCGTC,0.894
2,GAAACATGACACCCATCATGAGTAGGTTTA,-1.19
3,TTGCATCTCCTCCTCCCATTCCAGCTCTTT,0.802
4,AGTCCGGGGGCCAGTTCACTCAGTCCACAT,3.21
5,CCTGACCTTTGGATTCCCAGATGGAGTGCT,3.88
6,CAGTAGATAACCTCAAAGAGCATGGCGCCA,-1.36
7,ATCAAAGCAGTATCATCAACATGCACTAGC,-1.32
8,ACTTAGTCCAGGTTTAGCAAGAATACTGCT,-1.3
9,ACTCATGCTTTCTTATCTGGGGGCCATTCC,1.65
10,GAGATAAGGGGGTCAGTTCAAAAGACTCAT,-0.518
11,TTGTCCTTCACTTGTAGGAGACCTTGAGGA,1.67
12,ATTTTATGGGAAAACAGAATGGTCTGTATT,1.03
13,AACTCCTATGTGAATCTAATGCCACCATTG,-1.36
14,CTTAACATGGTTTGCAAGACCTCTGAGAAC,0.556
15,GAGGGATCAGGTCTTTCCTGTCCCAAGGGG,0.312
16,TTCCCGAGTGCCTTTAGAGGGCAAGGATCA,3.29
17,GTCTTTGCTTTTTGAAAAGCTGTAGTGAAC,1.21
18,CTCCAAGATAAAGGGTCAGATTGTAGCCTC,1.37
19,AGTATCCCATCCATTTCCCATCCCCAGAGC,3.72
20,CTGCCAAAGCTCACAGATGTGGAATGAAAC,-0.00598
21,GGCAGCCAGTGAGTGCAGCAGTGTACTTGA,0.556
22,ACCATCCACGGATGCATGATTGCTCTCTAC,-1.24
23,CAGCAGACAATGGGAGACATTCCTTCAGCG,-1.15
24,CCTTTTCTATCCAGATGATCTTTACCCTGG,4.59
25,GAACTGCAAGGCTAGAGATTCTCCCTGGGG,-1.34

row,Sequence,binding signal (log2 normalized intensity)
1,AGGAATCTGTTGAGAACTGGAGCAAAGGTC,5.76
2,TGTCCCACATTAACTGTGCTTCTGGGGTAT,0.886
3,AATAACAAAGGGCACCCTTGATGTGTATTT,1.75
4,ATCAGGAAGGTCAGAAAGCAGAAGTTCTAG,-1.3
5,GTACCCCACAGGTATTCTTTCATCCCTCTC,1.54
6,AACCCTTGAGCTCTGCACAGCACAAGATAA,0.249
7,CCCATCCCAGAGGTCAAACTATCTGAGGTG,1.93
8,AAGCCGAAAGAGGGTGAAAGTACAGTGATG,1.11
9,GGGCTGAGGATGAGGACTTTGGTCTTATTA,4.45
10,ACCCCAAAACCCCCAAAGGTGAGTAGGGCC,3.21
11,ATGGAGATGGAGATGGCCTGGAGGTACCTA,-1.41
12,TGATCACAAAGCCTGGGGTTTGGCTCCAAG,-1.25
13,TAGTACGCTCCCTGTGCCCACTTTCCTGGG,-0.99
14,ACCTGCAAACCTTTGACCTTTCCATAGTTC,5.75
15,CTTCGCTGGAATGTCACAGGGATTACGATC,0.569
16,ACCTGACAGGCTGAGGATCTAATGCACCCA,-0.914
17,TTCTCTGAGGTAGTTGAGTGCCTCCATTTC,0.109
18,ACAAGGAATTGGAATTGGGAGGACAGATAA,-1.26
19,CAAACAAAGGCACTTCTCTCTCCAAGGCAC,-1.32
20,GGAGTGCTCCCGCCTGACCTGGCCCCTGAG,0.962
21,TTTGCTCCAGTTCCCAATAATTTCCTTATC,-1.15
22,TATTGCCCTCAGGGTTTAGGCCTGGGACCT,0.379
23,TAGTCCTATCACTGTCTAGCTGTGTAACCC,1.87
24,TACAGACTTTCAACAAGGTGGAGACCTCTG,-0.0966
25,TTCCAATAAACTTCATTTACCAAAAAACAG,-1.19

row,Sequence,binding signal (log2 normalized intensity)
1,TCAGCACACTCTGGTACCATGGATGCACTC,0.457
2,ACAAGGAGTCTCCACTATGACCTGTGCTTT,2.18
3,CATCCAACTCCTTGAGAAGTACAACTTCAG,-1.36
4,AAAGGAGCTGGGCCTGTGCTGGGGACAAAA,-1.3
5,CCGTCGGCACACACGCATGGCCGGCAGCAG,-1.31
6,CAGCATGTTATCAGTTAATTGCATTCTTTG,0.554
7,CCAAACAGAACAAAGTCCAGTAAGGACAGT,3.01
8,TGAGTAATGTGAAGACTTCGCTGGAATGTC,0.589
9,GTCACAGCAAAAGTAGCCTGGTCAGGAACA,-1.33
10,GCTCTGTAAGGAGGATCAAGTGTGCACACT,3.46
11,ACTAGCTCCATGTGAGTCACAAACAGTACT,-0.852
12,GGCTGCTTCACACAAACATCACCTACCTGA,-1.41
13,TACCAAGGAGTGGACTGTTCAAGACCAAAG,-1.3
14,CCTTTGTGTTTATGGCAAATTGATATCCTG,1.48
15,TTTCACAGTCGATCTTTGACCGCTGCCTCC,5.11
16,CATTTGGAGAGAGTTTGGCCCCAGTTCCCA,1.91
17,TGCTGCTCTAGATGAGGGGGAAAGGGGTTG,-1.42
18,TTCTTAACAAGCTGAGCACCAGAAACCTGC,-1.36
19,CTGCATGAAAGTTCTCTGGGCTTTTTGATC,1.79
20,GATCTGGGTTTGACCGTTCTCTCCGGGTAA,1.08
21,TTAGGAAACCTGGTAGCGTGTAGTAAAGCT,-1.3
22,AACCAAAGTAGAGGAATGCTGGTAAACACT,-1.27
23,ACTGACCTTGTTGCCCACCCCCCAAGTAGA,6
24,TCATGGAGGTGTGGGGAGTTCCTTCAGACC,-1.18
25,TGAAGGGCAGGGTTGGCTGTGGCAATTCCT,-1.12

row,Sequence,binding signal (log2 normalized intensity)
1,CAGCATTCCATTCATTTTAGACATAACAGT,1.33
2,TCCAAAAAGAATCAGTTACAAGTTAATTTC,-1.44
3,CACACAGACTTGGGTTCAAAGAGCACATTC,4.13
4,CTCCCAAATCTTCTTTAAGCTATGTGGTGG,0.933
5,CCTGATGGGATGAGAGAGCCCCTGTGATAC,2.15
6,CTGAGCATACAGAACCCATGCTCTTTGGCC,3.91
7,AGCTGGTTTGAAGAATGTGGTCTGGTCATG,1.69
8,TTGCCAGTTCCCATTTGCGCTGGTTTTATG,1.65
9,TTTAAGGTCACATGCCTAGGTAAGCCCACT,-1.08
10,CTTGCAATGAGGCGACATCAAAGCATTTGG,-1.25
11,AGCTATTGCGAGGTTCCATGGTGTAATGGT,1.81
12,GGCCACCTTTGGCCGAAACTCAGTGATTGG,1.42
13,TTGGTAATCCTGCTCCTTCTGAATCTGTTC,1.11
14,AGTAGCTAGGAGACAACTTAGAATTTCATT,-1.27
15,AGGACAGACTTTGGACCTGGCCCTCTGGGT,5.3
16,AACTCCCCCTGCCCCCAGGTAGAGAGCAAT,4.35
17,AGGGTCACAAGGATCCCATTCATGTGGGTC,0.887
18,ACACTTCCCAAGCATGTTTGGTGACCCGTG,3.57
19,AGTGTGAGTGTCAGAGGCTAAACCTAGCCC,-1.45
20,CTGCCCTTTGAAGCATGTGATCTACTCCCT,1.14
21,AGGTCTCGAGGCCTCTTTATCTCCTCCCCT,3.34
22,TGTTTTTATTTCCCCTTTCTGTTGGAAGCT,1.42
23,ACAAAGCTCTGCATCCTTCCCTAAGCAGCT,-1.28
24,GCAGCTCTGCGTCTTACTAAATGCAGCCTT,-1.3
25,CCAAGACTCGCGATAACCCTCTGGGGCCGG,-1.3

row,Sequence,binding signal (log2 normalized intensity)
1,ACACGCATGGCCGGCAGCAGCCTTGCCTTT,-1.31
2,GGACTTGAGGTCTTATCTTTAGGCCAAACA,0.513
3,ACAAAGAAAGCCAAAGTTCACCCTTTCGCC,2.44
4,ATGGGACATTGCATTCCACCCTGGCAGAGG,-1.29
5,ACTGATTCTCAGGCATCTCTGGGGGTCAGA,3.42
6,GTACACAGGAATATCAACAGGAGCAAATAT,-1.3
7,ATATTCAGACGCATGACCTCAACTCTCAGT,0.396
8,TCATTTTGATCTTTGTGTACAAAGCCATCA,1.49
9,AGGTGTAACCTGCTCTCTCATGCCCTTTGC,4.81
10,GTTCAGAGGGCATGTTGAGTGGAATATGAG,0.989
11,GCCTTGCTGAGGAATTTGGACTTCAGCCCA,7.03
12,GCATCAACTCTATCATACTCAGCTAATCTA,-1.29
13,ACAGCTGACAAGCAGAACCCAGGGTCACAA,1.25
14,CTAGAAAGAATGAGAAGGGCTAATATTTGC,-1.17
15,GAACTCTTCATGGACTCCTCTTATCTTCAG,0.888
16,ACTGCCATTGATAATTCAGTTTCATTGCAC,-0.131
17,TCCCTCCCCCATTAGAGGCACACTCTATTA,3.48
18,CGAGAGAGACCTGTTCTGTTCCCTGGACTC,3.25
19,TTTGTTCACTTGTTTATCTGCTGCCCTTCC,3.05
20,GCTTGACCCATTATGGCCACTGTGTGTGTG,2.11
